Among all 310,000 compounds or so, about 18,000 (5.8%) were called active. Inconclusive results, whose numbers are uncertain, are shown with a selection of clear calls. Calls come from the whole dose curve; as a rule, active = well fitted inhibition curve with a large enough effect; inconclusive = small, poorly fitted or top-dose-only effect, or another doubt; inactive = no such curve, though single readings can be large or run the other way. No potency is given beside an inconclusive call; the fits are too rough.
Experiment: Primary qHTS for delayed death inhibitors of the malarial parasite plastid, 48 hour incubation
Conditions: P. falciparum luciferase growth in erythrocytes; series mostly up to 28.7 µM; activity change, negative = inhibition: at the top concentration
Method in brief: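 A one-generation exposure of luciferase-tagged malaria parasites in RPMI 1640/Albumax erythrocyte culture, 37 C and 5% CO2. Inhibition is inferred from decreased luminescence after adding detection reagent.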
In the case of CCOC(=O)c1cc(-c2ccco2)nc2c1c(C)nn2-c1ccccc1, the Potency is reported as active: 9.28 µM.
In the case of COc1cc(OC)c(NC(=O)Cn2cccc2)cc1Cl, the “activity change, negative = inhibition” value is reported as inactive: 55.5%.
With CCOC(=O)c1cc(-c2ccccc2)sc1NC(=O)CC the Potency was active: 5.22 µM.
With Cc1c(NC(=O)c2nn(CC(C)C)c(=O)c3ccccc23)c(=O)n(-c2ccccc2)n1C the “activity change, negative = inhibition” value was inactive: -12%.
For CON/C=N/C(=S)Nc1ncc(C(F)(F)F)cc1Cl, the activity change, negative = inhibition was inactive: 35.5% [at 5.75 µM].
With C=CCc1cc(/C=N/n2cnnc2)cc(OCC)c1O the Potency was inconclusive [inhibitor, full curve, poor fit].
In the case of CC(C)(C)c1ccc(C(=O)N2CCC(C(=O)NCc3ccco3)CC2)cc1, the Potency is reported as inconclusive [inhibitor, partial curve].
For S=c1[nH]c(-c2ccccc2)cn1/N=C/c1ccncc1, the Potency was inconclusive [inhibitor, single point].
For COc1ccc(CN2CCN(Cc3cccn3-c3ncccn3)CC2CCO)c(C)c1C (stereo unspecified), the Potency was inconclusive [inhibitor, partial curve, poor fit].
In the case of Cc1nnc(SC(=O)N2c3ccccc3Sc3ccccc32)s1, the Potency is reported as active: 10.4 µM.
With O=C(NN=C1CCCCCC1)c1ccncc1 the “activity change, negative = inhibition” value was inactive: 21%.
For Cc1cccc(Nc2c(-c3ccc(O)cc3)nc3ncccn23)c1, the Potency was inconclusive [inhibitor, partial curve, poor fit].
In the case of COC(=O)c1c(NC(=O)c2cccc(S(=O)(=O)N3CCN(C)CC3)c2)sc(C)c1C, the Potency is reported as inconclusive [inhibitor, single point].
In the case of CC(C)(C)OC(=O)N1CCC[C@H]1c1nnc(SCc2ccccc2Cl)o1, the Potency is reported as inconclusive [inhibitor, single point].
In the case of COc1ccc(/C=N/NC(=O)c2cccnc2)cc1CN1CCCc2ccccc21, the Potency is reported as inconclusive [inhibitor, single point].
For Cc1ccccc1-c1nnc(SCC(=O)NCC2CCCO2)o1 (stereo unspecified), the “activity change, negative = inhibition” value was inactive: 6.18%.
In the case of CC(=O)NC1=NN(C(C)=O)C(c2ccco2)S1 (stereo unspecified), the “activity change, negative = inhibition” value is reported as inactive: 11.8%.
For O=C(Nc1cccnc1)c1ccc(COCC(F)(F)F)cc1, the “activity change, negative = inhibition” value was inactive: 36.5%.
For COc1ccccc1N1CCN(C(c2ccc(F)cc2)c2nnnn2C(C)C)CC1 (stereo unspecified), the Potency was inconclusive [inhibitor, partial curve, poor fit].
In the case of CCCCNC(=O)N(O)C1N(/N=C/c2ccco2)C(=S)SC1(C)C (stereo unspecified), the Potency is reported as inconclusive [inhibitor, single point].
With Cc1cc(SCC#N)n2nc(C)c(-c3ccccc3)c2n1 the “activity change, negative = inhibition” value was inactive: -9.95%.
For CC(C)(O)C#Cc1ccc(CN2CCN(CCc3ccccc3)C(CCO)C2)s1 (stereo unspecified), the Potency was inconclusive [inhibitor, partial curve, poor fit].
For COc1ccc(OC)c(C2=Nn3c(nnc3-c3cccc(OC(C)C)c3)SC2)c1, the Potency was active: 8.28 µM.
With Cc1nnc(C)c2c(C)n(C(C)c3ccccc3)c(C)c12 (stereo unspecified) the Potency was active: 8.28 µM.
With CC1CC(C)CN(CCOc2cccc(Cl)c2Cl)C1 (stereo unspecified) the Potency was inconclusive [inhibitor, single point].
In the case of COc1ccc(C(=O)Nc2ccccc2C(=O)N2CCN(c3ccccc3)CC2)cc1, the “activity change, negative = inhibition” value is reported as inactive: -16.5%.
For C/C(=N\Nc1nc(N2CCCCCC2)nc(N2CCCCCC2)n1)c1ccccc1, the Potency was inconclusive [inhibitor, single point].
In the case of CC(=O)n1c2c(c3ccccc31)OC(N)=C(C#N)C2c1ccc(C(C)C)cc1 (stereo unspecified), the “activity change, negative = inhibition” value is reported as inactive: 21.2%.
For CCN(CC)S(=O)(=O)c1ccc(NC(=O)CO/N=C(\N)c2ccccc2)cc1, the Potency was inconclusive [inhibitor, single point].
In the case of O=C(CSc1nc(-c2cccs2)cc(C(F)(F)F)n1)Nc1cc(OCC(F)(F)C(F)F)cc([N+](=O)[O-])c1, the Potency is reported as inconclusive [inhibitor, partial curve].
For OCCNc1nc(Nc2cccc(O)c2)nc2ccccc12, the Potency was active: 2.33 µM.
In the case of O=c1[nH]c(=O)n(Cc2ccco2)c2c1C(C(F)(F)F)(C(F)(F)F)N=C(Cc1ccccc1)N2, the Potency is reported as inconclusive [inhibitor, partial curve, poor fit].
In the case of CCOC(=O)c1c(NC(=O)CN2CCCc3ccccc32)sc(C)c1CC, the Potency is reported as inconclusive [inhibitor, single point].
For COc1ccccc1CCc1nnc(CCC(=O)NC(C)Cc2cccnc2)o1 (stereo unspecified), the “activity change, negative = inhibition” value was inactive: 12.4%.
For Cc1cccc(NC(=O)CSCC(=O)N(C)CC(=O)Nc2cccc(F)c2)c1, the Potency was inconclusive [inhibitor, full curve, poor fit].
For O=C1[C@H]2[C@@H](c3ccc(F)cc3)N3C(=O)N(c4cccc(Cl)c4)C(=O)[C@@]3(Cc3ccccc3)[C@H]2C(=O)N1C1CCCCC1, the Potency was active: 2.62 µM.
For O=C(NC1CCCCC1)c1cc(N2C(=O)CCC2=O)ccc1Cl, the “activity change, negative = inhibition” value was inactive: 27.1%.
In the case of O=C(NCC1COc2ccccc2O1)C1CCN(S(=O)(=O)c2ccc(Cl)cc2)CC1 (stereo unspecified), the Potency is reported as inconclusive [inhibitor, single point].
In the case of COc1ccccc1NC(=O)C(Sc1ccccc1)c1ccccc1 (stereo unspecified), the Potency is reported as inconclusive [inhibitor, single point].
For Cc1ccc(OCC(=O)N/N=C/c2cccn2C)cc1C, the Potency was inconclusive [inhibitor, full curve, poor fit].
With COc1ccc(N(C(=O)Cn2nnc(-c3ccc(F)cc3)n2)C(C)C(=O)NC2CCCC2)cc1 (stereo unspecified) the Potency was inconclusive [inhibitor, partial curve].
With COc1cc(CNC2CCCCCCC2)cc(Cl)c1OCC(N)=O the Potency was inconclusive [inhibitor, partial curve, poor fit].
With CS(=O)(=O)Nc1cccc2cccnc12 the “activity change, negative = inhibition” value was inactive: -15.5%.
In the case of COCc1ccc(C(=O)N2CCC(CCC(=O)Nc3cccc(C)c3)CC2)s1, the Potency is reported as inconclusive [inhibitor, single point].
With COc1cccc(CC(=O)OCC(=O)Nc2c(C)nn(-c3ccccc3)c2C)c1 the Potency was inconclusive [inhibitor, single point].
In the case of CC(C)CC(C(=O)NC(C)(C)C)N(Cc1ccccc1Cl)C(=O)c1snc(C(N)=O)c1N (stereo unspecified), the Potency is reported as inconclusive [inhibitor, partial curve, poor fit].

Source: PubChem BioAssay AID504832 (National Center for Advancing Translational Sciences (NCATS), 2011)
% is set by controls: 0 for no effect and ±100 for the full control effect; potency is the fitted concentration of half-maximal effect; tags give direction and shape of the fitted curve.
